Assay results published in article PMC11231238, “SPRING licenses S1P-mediated cleavage of SREBP2 by displacing an inhibitory pro-domain” (Nature Communications, 2024).
No constants are given. Whether binding was seen depends on the method and setting. In cells and extracts the contact can be indirect. Some entries that bind do so weakly or less than the wild type. Sequences can lack the tags named with a protein.

Columns and labels:
Test in all cases: pull-down; HEK 293T supernatants of co-transfected cells with 50 mM imidazole; NiNTA resin holds the His10 tag of S1P_(ecto), 1-2 h at 4 °C; washes in 150 mM NaCl, 50 mM HEPES-NaOH pH 7.5, 50 mM imidazole; elution with 300 mM imidazole; immunoblot anti-HA, anti-His, anti-FLAG
[1] = biological target: T1, FLAG-S1P_(ecto)^S414A-His10 (A-form) (human) (UniProt Q14703)
T1 sequence: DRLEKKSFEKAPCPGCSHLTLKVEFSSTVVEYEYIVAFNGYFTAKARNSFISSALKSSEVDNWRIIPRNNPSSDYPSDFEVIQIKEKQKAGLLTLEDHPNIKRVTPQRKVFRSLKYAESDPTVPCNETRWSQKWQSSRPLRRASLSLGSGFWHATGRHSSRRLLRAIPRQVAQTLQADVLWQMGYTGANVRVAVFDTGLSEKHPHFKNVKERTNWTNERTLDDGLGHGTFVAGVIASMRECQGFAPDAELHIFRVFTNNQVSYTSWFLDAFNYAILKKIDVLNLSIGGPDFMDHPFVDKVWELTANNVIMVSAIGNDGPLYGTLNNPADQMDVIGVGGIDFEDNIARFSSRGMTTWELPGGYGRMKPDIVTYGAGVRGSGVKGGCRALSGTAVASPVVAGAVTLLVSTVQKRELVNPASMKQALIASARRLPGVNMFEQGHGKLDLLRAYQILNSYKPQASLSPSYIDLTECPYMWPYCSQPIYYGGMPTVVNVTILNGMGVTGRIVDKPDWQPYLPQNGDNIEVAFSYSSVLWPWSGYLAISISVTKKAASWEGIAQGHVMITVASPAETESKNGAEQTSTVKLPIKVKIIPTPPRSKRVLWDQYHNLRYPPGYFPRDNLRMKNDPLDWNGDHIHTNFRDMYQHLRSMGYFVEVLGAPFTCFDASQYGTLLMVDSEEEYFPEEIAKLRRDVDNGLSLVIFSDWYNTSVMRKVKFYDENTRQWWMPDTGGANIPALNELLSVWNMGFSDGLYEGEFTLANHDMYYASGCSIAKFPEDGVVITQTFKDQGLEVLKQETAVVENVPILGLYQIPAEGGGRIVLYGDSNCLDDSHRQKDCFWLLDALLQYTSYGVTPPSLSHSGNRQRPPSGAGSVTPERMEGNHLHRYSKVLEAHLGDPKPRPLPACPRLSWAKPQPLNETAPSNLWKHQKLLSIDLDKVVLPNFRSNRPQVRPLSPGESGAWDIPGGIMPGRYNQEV

[2] = biological target: T2, S1P_(ecto)^N328A (FLAG-S1P_(ecto)-His10 background) (human) (UniProt Q14703)
T2 sequence: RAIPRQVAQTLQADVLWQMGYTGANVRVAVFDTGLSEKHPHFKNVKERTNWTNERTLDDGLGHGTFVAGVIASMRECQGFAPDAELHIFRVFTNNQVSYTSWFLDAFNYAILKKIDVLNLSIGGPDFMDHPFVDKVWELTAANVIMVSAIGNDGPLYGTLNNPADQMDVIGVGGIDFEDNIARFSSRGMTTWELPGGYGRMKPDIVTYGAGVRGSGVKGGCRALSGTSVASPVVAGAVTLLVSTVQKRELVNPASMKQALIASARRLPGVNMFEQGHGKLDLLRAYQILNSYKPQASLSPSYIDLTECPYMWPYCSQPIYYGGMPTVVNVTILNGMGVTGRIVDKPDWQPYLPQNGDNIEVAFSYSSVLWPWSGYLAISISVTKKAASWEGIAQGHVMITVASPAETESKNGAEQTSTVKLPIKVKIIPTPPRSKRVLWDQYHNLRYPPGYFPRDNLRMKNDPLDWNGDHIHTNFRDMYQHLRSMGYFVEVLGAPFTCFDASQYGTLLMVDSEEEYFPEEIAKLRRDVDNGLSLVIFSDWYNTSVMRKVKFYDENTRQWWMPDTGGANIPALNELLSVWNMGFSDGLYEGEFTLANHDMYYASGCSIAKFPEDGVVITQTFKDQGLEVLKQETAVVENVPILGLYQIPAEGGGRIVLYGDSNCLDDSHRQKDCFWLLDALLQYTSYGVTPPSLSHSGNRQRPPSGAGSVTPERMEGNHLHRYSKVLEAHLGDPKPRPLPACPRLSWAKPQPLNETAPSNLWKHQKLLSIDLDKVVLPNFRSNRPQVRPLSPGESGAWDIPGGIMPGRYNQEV

[3] = biological target: T3, FLAG-S1P_(ecto)-His10, matured C-form (human, UniProt Q14703 187-998)
T3 construct: human S1P (MBTPS1); expressed as IgK leader-FLAG-residues 23-998-His10; after autoproteolysis the His10-bearing C-form; The N-terminal FLAG tag leaves with the A-domain; also called WT S1P_(ecto); C-form of S1P_(ecto); source: HEK 293S GnTI- (BacMam baculovirus), secreted, purified (NiNTA, gel filtration); HEK 293T, transfected, secreted, in supernatant; not shown: His10, C-terminal, kept
T3 sequence (looked up): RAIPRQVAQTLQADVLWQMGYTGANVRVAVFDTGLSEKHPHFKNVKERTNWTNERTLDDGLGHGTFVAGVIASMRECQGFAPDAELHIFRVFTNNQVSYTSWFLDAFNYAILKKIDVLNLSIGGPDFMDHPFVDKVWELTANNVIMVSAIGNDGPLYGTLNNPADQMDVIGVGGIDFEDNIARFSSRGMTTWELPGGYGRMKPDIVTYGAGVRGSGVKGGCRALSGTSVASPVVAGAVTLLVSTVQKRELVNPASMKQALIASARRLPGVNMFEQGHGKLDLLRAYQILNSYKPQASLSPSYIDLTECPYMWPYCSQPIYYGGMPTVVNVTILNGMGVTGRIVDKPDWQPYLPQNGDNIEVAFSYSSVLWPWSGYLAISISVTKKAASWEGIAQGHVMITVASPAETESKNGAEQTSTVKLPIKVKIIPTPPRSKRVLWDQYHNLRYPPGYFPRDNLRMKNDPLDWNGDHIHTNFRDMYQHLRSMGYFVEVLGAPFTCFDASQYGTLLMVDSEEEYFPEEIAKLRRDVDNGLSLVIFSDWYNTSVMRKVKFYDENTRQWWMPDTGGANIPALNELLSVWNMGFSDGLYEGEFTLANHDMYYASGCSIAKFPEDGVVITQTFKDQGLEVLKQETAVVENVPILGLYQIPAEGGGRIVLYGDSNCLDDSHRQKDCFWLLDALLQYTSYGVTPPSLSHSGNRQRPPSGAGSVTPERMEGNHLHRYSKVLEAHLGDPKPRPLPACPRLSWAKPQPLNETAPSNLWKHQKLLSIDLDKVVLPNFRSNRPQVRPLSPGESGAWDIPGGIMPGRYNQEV

[4] = biological target: T4, S1P_(ecto)^P317A (FLAG-S1P_(ecto)-His10 background) (human) (UniProt Q14703)
T4 sequence: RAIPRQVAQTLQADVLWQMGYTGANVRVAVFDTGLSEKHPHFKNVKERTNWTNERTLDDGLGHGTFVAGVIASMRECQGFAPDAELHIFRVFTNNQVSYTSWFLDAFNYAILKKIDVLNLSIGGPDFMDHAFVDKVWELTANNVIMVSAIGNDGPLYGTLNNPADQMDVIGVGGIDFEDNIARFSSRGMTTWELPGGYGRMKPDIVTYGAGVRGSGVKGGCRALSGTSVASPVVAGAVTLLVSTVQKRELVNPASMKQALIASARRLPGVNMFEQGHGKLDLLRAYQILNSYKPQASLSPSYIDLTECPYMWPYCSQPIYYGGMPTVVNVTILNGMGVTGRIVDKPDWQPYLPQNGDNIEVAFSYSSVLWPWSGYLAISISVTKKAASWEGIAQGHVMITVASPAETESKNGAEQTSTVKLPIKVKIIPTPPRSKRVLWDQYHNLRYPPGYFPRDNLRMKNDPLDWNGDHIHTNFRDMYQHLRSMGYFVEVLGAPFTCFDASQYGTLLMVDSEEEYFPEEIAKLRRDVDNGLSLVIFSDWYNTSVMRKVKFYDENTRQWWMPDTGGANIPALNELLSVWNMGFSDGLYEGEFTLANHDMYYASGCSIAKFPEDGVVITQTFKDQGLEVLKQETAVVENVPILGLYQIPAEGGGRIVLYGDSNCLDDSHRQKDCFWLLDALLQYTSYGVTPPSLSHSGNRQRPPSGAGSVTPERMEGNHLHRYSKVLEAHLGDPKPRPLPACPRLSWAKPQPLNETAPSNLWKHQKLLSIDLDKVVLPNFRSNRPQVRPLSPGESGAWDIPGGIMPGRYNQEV

[5] = biological target: T5, S1P_(ecto)^W556A (FLAG-S1P_(ecto)-His10 background) (human) (UniProt Q14703)
T5 sequence: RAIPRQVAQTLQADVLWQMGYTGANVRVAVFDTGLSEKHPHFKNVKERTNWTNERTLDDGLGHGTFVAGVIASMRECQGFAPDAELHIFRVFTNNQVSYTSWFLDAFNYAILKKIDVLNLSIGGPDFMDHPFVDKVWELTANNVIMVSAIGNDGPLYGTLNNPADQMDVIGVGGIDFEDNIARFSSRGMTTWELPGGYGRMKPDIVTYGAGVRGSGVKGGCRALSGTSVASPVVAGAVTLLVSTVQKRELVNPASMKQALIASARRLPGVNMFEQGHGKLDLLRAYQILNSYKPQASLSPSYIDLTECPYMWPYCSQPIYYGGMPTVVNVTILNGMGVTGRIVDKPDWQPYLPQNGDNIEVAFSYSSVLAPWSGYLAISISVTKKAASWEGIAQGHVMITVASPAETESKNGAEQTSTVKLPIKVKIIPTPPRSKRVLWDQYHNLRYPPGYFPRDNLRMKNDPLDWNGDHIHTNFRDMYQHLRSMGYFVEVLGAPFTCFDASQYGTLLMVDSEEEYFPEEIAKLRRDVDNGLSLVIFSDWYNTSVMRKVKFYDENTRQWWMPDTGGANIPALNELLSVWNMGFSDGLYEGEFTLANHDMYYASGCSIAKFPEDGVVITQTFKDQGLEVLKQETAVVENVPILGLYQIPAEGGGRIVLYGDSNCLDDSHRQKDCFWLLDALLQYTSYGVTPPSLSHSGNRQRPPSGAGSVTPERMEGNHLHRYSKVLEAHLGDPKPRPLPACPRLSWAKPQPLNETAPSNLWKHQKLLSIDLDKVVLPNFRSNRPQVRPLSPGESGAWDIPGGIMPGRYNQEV

B1: SPRING_(ecto)-HA (domain or fragment, UniProt Q9H741 36-205)
chain: KQEERAVRDRNLLQVHDHNQPIPWKVQFNLGNSSRPSNQCRNSIQGKHLITDELGYVCERKDLLVNGCCNVNVPSTKQYCCDGCWPNGCCSAYEYCVSCCLQPNKQLLLERFLNRAAVAFQNLFMAVEDHFELCLAKCRTSSQSVQHENTYRDPIAKYCYGESPPELFPA
For B1, the binding [1] was “no binding”, the binding [2] was “no binding” and the binding [3] was “binds”.

B2: SPRING_(ecto)^R95A (HA-tagged) (domain or fragment, UniProt Q9H741 36-205)
chain: KQEERAVRDRNLLQVHDHNQPIPWKVQFNLGNSSRPSNQCRNSIQGKHLITDELGYVCEAKDLLVNGCCNVNVPSTKQYCCDGCWPNGCCSAYEYCVSCCLQPNKQLLLERFLNRAAVAFQNLFMAVEDHFELCLAKCRTSSQSVQHENTYRDPIAKYCYGESPPELFPA
With B2 the binding [4] was “no binding”.

B3: SPRING_(ecto)^V180A (HA-tagged) (domain or fragment, UniProt Q9H741 36-205)
chain: KQEERAVRDRNLLQVHDHNQPIPWKVQFNLGNSSRPSNQCRNSIQGKHLITDELGYVCERKDLLVNGCCNVNVPSTKQYCCDGCWPNGCCSAYEYCVSCCLQPNKQLLLERFLNRAAVAFQNLFMAVEDHFELCLAKCRTSSQSAQHENTYRDPIAKYCYGESPPELFPA
For B3, the binding [5] was “no binding”.
